Several values for one entry are separate records, joined by “and”; a condition that tells them apart may be missing. Identical values can stand only once. About 40 (0.2%) of roughly 16,000 compounds were called active. About 1% were inconclusive and are not listed. The call rests on the fitted dose curve; in most records, active means well fitted activation curve with a large enough effect; inconclusive means small, poorly fitted or top-dose-only effect, or another doubt; inactive means no such curve, though single readings can be large or run the other way. The list shows a part of the results.
Molecular target: Rap guanine nucleotide exchange factor 4 (Homo sapiens) (UniProt Q8WZA2)
Assay: Validation qHTS for agonist of cAMP-regulated guanine nucleotide exchange factor 4 (EPAC2);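 further: exchange makes BODIPY-GDP fluorescence drop when released from Rap1B; series mostly up to about 150 µM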
Details: EPAC2 Rap1B BODIPY-GDP exchange, fluorescence; activation: active compounds read high
Method in brief: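 Fluorescent exchange assay: 100 nM EPAC2 with 250 nM RAP1B-BODIPY-GDP and 50 uM GDP; compound added, 5 min at room temperature, then read (ex 480/em 540 nm) every 5 min for 30 min. Normalized to 6.5 mM cAMP agonist control.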
On the % scale 0 is the no-effect control and ±100 the full control effect.

Sequence of UniProt Q8WZA2 (Q8WZA2 whole entry, looked up): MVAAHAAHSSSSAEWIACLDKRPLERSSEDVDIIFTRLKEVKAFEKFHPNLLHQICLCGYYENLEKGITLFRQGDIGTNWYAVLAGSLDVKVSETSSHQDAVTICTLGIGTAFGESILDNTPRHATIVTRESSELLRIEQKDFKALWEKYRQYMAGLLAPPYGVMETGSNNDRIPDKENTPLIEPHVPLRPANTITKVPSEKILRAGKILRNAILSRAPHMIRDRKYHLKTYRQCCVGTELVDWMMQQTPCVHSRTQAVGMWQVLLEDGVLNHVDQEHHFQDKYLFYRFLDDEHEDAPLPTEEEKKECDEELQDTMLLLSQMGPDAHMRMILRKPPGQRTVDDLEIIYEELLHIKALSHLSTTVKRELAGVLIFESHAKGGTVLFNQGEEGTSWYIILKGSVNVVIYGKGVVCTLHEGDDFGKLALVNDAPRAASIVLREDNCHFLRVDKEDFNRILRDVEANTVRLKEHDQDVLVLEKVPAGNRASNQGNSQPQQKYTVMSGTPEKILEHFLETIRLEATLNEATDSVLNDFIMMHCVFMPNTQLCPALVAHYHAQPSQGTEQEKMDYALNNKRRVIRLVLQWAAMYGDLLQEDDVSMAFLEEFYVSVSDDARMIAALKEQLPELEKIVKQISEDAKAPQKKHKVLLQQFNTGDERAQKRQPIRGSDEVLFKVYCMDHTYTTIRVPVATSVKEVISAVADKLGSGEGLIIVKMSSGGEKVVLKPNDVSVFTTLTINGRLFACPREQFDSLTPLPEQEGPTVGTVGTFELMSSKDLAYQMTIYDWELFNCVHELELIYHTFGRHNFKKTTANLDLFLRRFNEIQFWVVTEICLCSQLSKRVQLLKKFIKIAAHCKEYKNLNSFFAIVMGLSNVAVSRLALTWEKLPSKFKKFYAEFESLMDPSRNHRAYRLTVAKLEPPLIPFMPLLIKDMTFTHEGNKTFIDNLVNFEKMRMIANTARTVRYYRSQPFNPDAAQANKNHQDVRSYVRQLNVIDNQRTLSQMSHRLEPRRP

activation, inactive:
Cc1ccc(C(=O)N(Cc2cc3cccc(C)c3nc2N2CCC(O)CC2)C2CC2)cc1 10.8%, COC(=O)C1CCN(Cc2ccc3c(c2)CN(C(=O)C2Cc4ccccc4O2)CCO3)CC1 (stereo not given) -18.6%, COC(=O)N1c2ccccc2C23[C@@H]4CN5CCC[C@]6(CCC12C(O)(C6)C4=O)[C@H]53 -15%, COc1ccc(CN2CCN(C(C)=O)CC2)cc1OC1CCN(C(=O)c2ccc3ccccc3n2)CC1 -0.653%, CCCC(CCC)C(=O)OC1C[C@H]2CC[C@@H](C1)[N+]2(C)C (stereo not given in full) -7.11% and -2.89%, CC(N)=NCCC[C@H](N)C(=O)O -2.7%, Cc1noc(C)c1C(=O)N1CCC2(CCCN(C(=O)Nc3ccccc3)C2)CC1 -16.4%, CNC(=O)[C@H]1O[C@H](n2cnc3c(NCc4cccc(I)c4)nc(Cl)nc32)[C@@H](O)[C@@H]1O -24.9%, COc1ccc(CN([C@H](C)CO)S(=O)(=O)N(Cc2ccccc2)[C@H](CO)C(C)C)cc1 -34.4%, Cc1ccc(C(=O)C[n+]2cccc3cccc(O)c32)cc1 -30%, Cc1ncc2c(c1CNC(=O)/C=C/c1cccs1)CCN(C(=O)c1c(C)noc1C)C2 -12.1%, CCOC(=O)/C=C1\CN(Cc2cc(OC)c(OC)c(OC)c2)S(=O)(=O)c2ccc(C(F)(F)F)cc21 -39%, Cc1oc(-c2ccccc2NS(C)(=O)=O)nc1CN(C)Cc1ccc(Cl)cc1 -2.96%, C[C@H]1CC[C@@H]2N(C1)C[C@H]1[C@@H]3C[C@H]4[C@@H](C/C(=N\O)[C@H]5C[C@@H](O)CC[C@@]54C)[C@@H]3CC[C@H]1[C@]2(C)O -15.3%, O=C(Nc1cc(C(=O)Nc2ccc(S(=O)(=O)O)cc2S(=O)(=O)O)cc(C(=O)Nc2ccc(S(=O)(=O)O)cc2S(=O)(=O)O)c1)Nc1cc(C(=O)Nc2ccc(S(=O)(=O)O)cc2S(=O)(=O)O)cc(C(=O)Nc2ccc(S(=O)(=O)O)cc2S(=O)(=O)O)c1 14.4%, COc1cccc(-c2nc(NC3CCNCC3)c3ccccc3n2)c1 -15%, COc1cc(-c2ccc(=O)[nH]n2)ccc1OC(F)F -7.78% and 6.65% and -7.81%, COc1ccc(C(=O)NCc2nnc(SC)n2-c2ccccc2C)c(OC)c1OC -10.3%, C(=C\c1ccncc1)/c1ccccc1 -2.08% and -21.7%, N[C@H](CS)C(=O)O 0.245%, CN(C)C(=O)c1ccc(-c2cncnc2NCc2cccnc2)cc1 -2.25%, CS(=O)(=O)N1CCC[C@@]2(CCN(c3ccncc3)C2)C1 -0.943%, COc1cccc(CN2c3ccc(Br)cc3C(=O)CS2(=O)=O)c1 -1.56%, CN(C)c1ccc(/C=[N+]2\C(=O)CC(=O)NC2=O)cc1 -2.31%, COc1ncc2nc(-c3ccccc3)c(=O)n(CCC#N)c2n1 0.0839%, CCCCC1(COC(=O)CCC(=O)O)C(=O)N(c2ccccc2)N(c2ccccc2)C1=O -13.7% and -12%, O=c1c(-c2cccc(Cl)c2)nc2cncnc2n1Cc1ccc(F)cc1 -6.43%, CC(C)c1ccc(Cn2ccc3c4c(N)nc(NC5CC5)nc4ccc32)cc1 -30.5%, COc1ccccc1CN1CCC2(CC1)CCN(S(=O)(=O)c1ccccc1)CC2 -6.3%, COc1cc(NC(C)CCCN)c2ncccc2c1 (stereo not given) 5.22% and -2.74%, O=c1[nH]c(=O)n([C@H]2C[C@H](O)[C@@H](CO)O2)cc1Br 6.47% and -2.95% and -9.13%, COc1ccc(/C(=C\C(=O)O)c2nccc3cc(OC)c(OC)cc23)cc1OC -12.7%, CSc1nc2cc(Oc3cccc(Cl)c3Cl)c(Cl)cc2[nH]1 1.25%, COc1cccc(-c2ccc3ncnc(N4CCNCC4)c3c2)c1 -2.62%, CC(=O)CC/C=C(\C)CC/C=C(\C)CC/C=C(\C)CCC=C(C)C -8.99%, O=C(c1cc(C(F)(F)F)cc(C(F)(F)F)c1)N1CCC2(CCCN(c3ccccc3)C2)CC1 2.95%, COc1ccc(CNc2ccnc(-c3ccoc3)n2)c(OC)c1 -3.28%, COc1ccc(Oc2ncc3nc(C)c(=O)n(C)c3n2)cc1 -8.18%, CCCCNc1c(C(=O)OCC)c(C)nc2c1cnn2CC -13.6% and -21.3%, Nc1c(N=Nc2ccc(-c3ccc(N=Nc4cc(S(=O)(=O)O)c5ccccc5c4N)cc3)cc2)cc(S(=O)(=O)O)c2ccccc12 -13.7%, O=S(=O)(O)O -6.75%, N[C@@H](C(=O)O)[C@H](CC(=O)O)c1ccc(Cl)cc1 -12.2%, OC[C@H]1O[C@@H](n2cnc3c(Nc4ccccc4)ncnc32)[C@H](O)[C@@H]1O -27.2%, CN(C)c1nc2cc(Cl)ccc2cc1CN(Cc1ccc2c(c1)OCO2)C(=O)c1ccoc1 -17.4%, CC(=O)C[C@H]1c2cc(C(F)(F)F)ccc2S(=O)(=O)N1c1ccccc1 -7.56%, Cc1cc(-c2ccnc(-n3ncc(C(=O)NCC(C)(C)N4CCOCC4)c3C)n2)c(C)s1 2.13%, COC1(C)CCC2OC2(C)CCC2C1CC2(C)C (stereo not given) -6.56%, CN(C)c1ccc(/C=C2/CCCc3c2nc2ccccc2c3C(=O)O)cc1 -21.8%, Nc1ccc(CCNc2ncnc3c2ncn3C2OC(CO)C(O)C2O)cc1 (stereo not given) -2.64% and -9.47%, C=Cc1c(C)c2cc3nc(cc4[nH]c(cc5nc(cc1[nH]2)C(C)=C5CCC(=O)OC)c(CCC(=O)O)c4C)[C@@]1(C)C3=CC=C(C(=O)OC)[C@H]1C(=O)OC 0.217%

— PubChem BioAssay AID1645887 (National Center for Advancing Translational Sciences (NCATS), 2021)
